Reference: PubChem BioAssay AID485281 (National Center for Advancing Translational Sciences (NCATS), 2010)
The campaign covered roughly 350,000 compounds. About 260 (0.074%) were called active. The inconclusive results got no clear call from the source; some entries with a clear call stand among them for comparison. The call rests on the fitted dose curve; in most records, active means well fitted inhibition curve with a large enough effect; inconclusive means small, poorly fitted or top-dose-only effect; inactive means no such curve, though single readings can be large or run the other way. Where the call is inconclusive, the potency comes from a doubtful curve fit.

Target: Ferritin light chain (Equus caballus) (UniProt P02791)
Chain of UniProt P02791 (P02791 whole entry, looked up): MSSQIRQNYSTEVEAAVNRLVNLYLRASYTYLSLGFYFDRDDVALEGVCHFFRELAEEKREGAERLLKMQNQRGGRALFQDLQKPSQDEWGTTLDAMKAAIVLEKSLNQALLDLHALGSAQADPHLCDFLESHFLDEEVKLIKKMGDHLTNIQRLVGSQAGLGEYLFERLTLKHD
Experiment: qHTS Assay for Identification of Novel General Anesthetics; further: nearly all actives have a fitted effect of over 20% in size
Settings: apoferritin/1-aminoanthracene competitive binding, fluorescence; activity change, negative = displacement: at 77.5 µM (top of the series)
Method in brief: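 Apoferritin-based anesthetic binding model; compound displacement of fluorescent 1-AMA measured as endpoint fluorescence after 10 minutes at room temperature, scaled to free-ligand and complex controls.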
On the % scale 0 is the no-effect control and ±100 the full control effect; potency means the concentration at half of the fitted maximal effect; tags describe the fitted curve by direction and shape.

| Compound | Potency | activity change, negative = displacement |
| --- | --- | --- |
| Clc1ccc(NCc2ccsc2)cc1 | inconclusive: 14.1 µM [inhibitor, partial curve] |  |
| COc1ccccc1C1=NOC(C)(c2sc(-c3ccc(Cl)cc3)nc2C)C1 (configuration not stated) |  | inactive: 4.52% |
| O=C(OCc1cnc(Cl)s1)c1cccc(Cl)c1 | inconclusive: 25.1 µM [inhibitor, partial curve] |  |
| CN1C(=CC=C2C=C(I)C(=O)C(I)=C2)C(C)(C)c2ccccc21 |  | inactive: 6.29% |
| O=C(NCCS(=O)(=O)N1CCN(c2ccccc2)CC1)C1CC(=O)N(c2ccc(F)cc2)C1 (configuration not stated) | inactive |  |
| CCOC(=O)Nc1nnc(CCc2ccccc2)s1 | inconclusive: 15.8 µM [inhibitor, partial curve] |  |
| O=C1Cc2ccccc2Sc2ccccc21 | inconclusive: 31.6 µM [inhibitor, partial curve] |  |
| CC(C)c1ccc(SCc2noc(C(=O)NCC3CCCO3)c2C(=O)O)cc1 (configuration not stated) | inconclusive: 35.5 µM [inhibitor, partial curve] |  |
| O=C(COC(=O)CCc1ccccc1)Nc1ncc(Cl)cc1Cl | inconclusive: 25.1 µM [inhibitor, partial curve] |  |
| COc1cc(/C=N/NC(=O)c2ccc(Cl)cc2)ccc1OCC(=O)N1CC(C)OC(C)C1 (configuration not stated) |  | inactive: -2.82% |
| Cc1cccc(C(C)Nc2ccc([N+](=O)[O-])cn2)c1 (configuration not stated) | inconclusive: 17.8 µM [inhibitor, partial curve] |  |
| CC1CCN(CC(=O)Nc2ccccc2C(=O)c2ccccc2)CC1 | inconclusive: 35.5 µM [inhibitor, single point] |  |
| O=C(N(Cc1ccccc1)c1ccccn1)C12CC3CC(CC(C3)C1)C2 |  | inactive: -11.8% |
| CCCN1CCC(=NNc2ccc(S(N)(=O)=O)cc2[N+](=O)[O-])CC1 |  | inactive: -21.6% |
| Cc1cccc(NS(=O)(=O)c2ccccc2)n1 |  | inactive: -6.45% |
| COc1ccc(S(=O)(=O)Nc2cccc(-c3ccc(N4CCC(C)CC4)nn3)c2)cc1OC | inconclusive: 3.98 µM [inhibitor, full curve] |  |
| Cn1nc(C(=O)Nc2ccc(S(=O)(=O)N3CCCCC3)cc2)c2ccccc2c1=O | inconclusive: 17.8 µM [inhibitor, partial curve] |  |
| CCOC(=O)C(C)n1cnc2c(nnn2Cc2ccc(Cl)cc2)c1=O (configuration not stated) | inconclusive: 28.2 µM [inhibitor, partial curve] |  |
| CCc1ccc(NC(=O)C(=O)N/N=C(\C)CC(=O)NCc2ccc(Cl)cc2)cc1 | inconclusive: 22.4 µM [inhibitor, partial curve] |  |
| COc1ccc(C(=O)Oc2ccc3oc(=O)sc3c2)cc1 | inconclusive: 7.94 µM [inhibitor, full curve, poor fit] |  |
| Cc1ccc(S(=O)(=O)N2CC=C(c3c(C)n(CC(=O)N4CCCC4)c4ccccc34)CC2)cc1C | inconclusive: 4.47 µM [inhibitor, partial curve] |  |
| Cc1cc(C(F)(F)F)c(C#N)c(N2CCOCC2)n1 |  | inactive: -0.668% |
| Cc1ccc(-n2nnnc2SCC(=O)Nc2nc(-c3ccc(F)cc3)cs2)cc1C | inconclusive: 4.47 µM [inhibitor, full curve] |  |

| Compound | Potency | activity change, negative = displacement |
| --- | --- | --- |
| CCN1C(=O)CC(C(=O)NC)SC1=Nc1cc(Cl)c(O)c(Cl)c1 (configuration not stated) | inconclusive: 35.5 µM [inhibitor, partial curve] |  |
| Cc1ccc(S(=O)(=O)N2CCN(C(=O)CSc3nnc(-c4ccco4)o3)CC2)cc1 | inconclusive: 39.8 µM [inhibitor, single point] |  |
| O=C(Cn1nc(-c2ccccc2)ccc1=O)NCCN1CCN(c2cccc(Cl)c2)CC1 | inconclusive: 17.8 µM [inhibitor, partial curve] |  |
| O=C(Nc1ccc(F)cc1)c1cc(S(=O)(=O)N2CCCCC2)cs1 | inconclusive: 15.8 µM [inhibitor, partial curve] |  |
| COc1cccc(CC(=O)OCC(=O)NC2CCCCCC2)c1 | inconclusive: 15.8 µM [inhibitor, partial curve] |  |
| COc1cc(C(c2c(C)[nH][nH]c2=O)c2c(C)[nH][nH]c2=O)ccc1OCc1ccc([N+](=O)[O-])cc1 | inconclusive: 17.8 µM [inhibitor, partial curve] |  |
| Cn1c(=O)c(C(=O)COC(=O)c2cc(C(F)(F)F)nc3c(C(F)(F)F)cccc23)c(N)n(CC2CC2)c1=O | inconclusive: 14.1 µM [inhibitor, partial curve, poor fit] |  |
| CC[n+]1c(/C=C/C=C/N(C(C)=O)c2ccccc2)sc2ccccc21 | inconclusive: 20 µM [inhibitor, partial curve] |  |
| CC(C)(C)c1ccc(-c2nc(C#N)c(NCc3ccncc3)o2)cc1 | inconclusive: 20 µM [inhibitor, partial curve] |  |
| Cc1cc(C(=O)NCCC2=CCCCC2)no1 | inconclusive: 17.8 µM [inhibitor, partial curve] |  |
| O=C(COc1ccc(-c2ccccc2)cc1)N/N=C/c1cc(O)ccc1Br | inconclusive: 35.5 µM [inhibitor, partial curve] |  |
| COc1cccc(C2=Nn3c(nnc3-c3cc(OC)cc(OC)c3)SC2)c1 | inconclusive: 39.8 µM [inhibitor, partial curve] |  |
| CCOC(=O)c1c(C)oc2ccc(N(C(=O)c3ccncc3)S(=O)(=O)c3ccc(CC)cc3)cc12 | inconclusive: 31.6 µM [inhibitor, partial curve] |  |
| CCOC(=O)c1c(NC(=O)CSc2nnc(-c3ccccc3)n2CC)sc(C(C)=O)c1C | inconclusive: 28.2 µM [inhibitor, partial curve] |  |
| Cc1cccc(CS(=O)(=O)c2nnc([C@H](Cc3ccccc3)NC(=O)OC(C)(C)C)o2)c1 | inconclusive: 20 µM [inhibitor, partial curve] |  |
| O=C(COc1ccccc1)Nc1nc2c(s1)CCCC2 |  | inactive: -4.36% |
| CCN(CC)C(=O)c1sc2c(c1C)c(=O)n(-c1ccc(OC)cc1OC)c(=O)n2CC(=O)c1ccccc1 | inconclusive: 20 µM [inhibitor, partial curve] |  |
| CC(=O)Nc1ccc(C(=O)CS(=O)(=O)c2ccc(C)cc2)cc1 |  | inactive: -5.98% |
| CCC1CCC/C1=N\NC(=O)CCC(=O)Nc1ccccc1Cl (configuration not stated) | inconclusive: 44.7 µM [inhibitor, single point] |  |
| O=C(Nc1ccc2oc(-c3cccnc3)nc2c1)c1ccc([N+](=O)[O-])o1 |  | inactive: -9.69% |
| Cc1ccc(N2C(=O)CC(C3CCCO3)C2=O)cc1 (configuration not stated) | inconclusive: 20 µM [inhibitor, partial curve] |  |
| Cc1cccc(OCC(=O)N/N=C/CC(C)c2ccccc2)c1C (configuration not stated) | inconclusive: 17.8 µM [inhibitor, partial curve] |  |
| N#C/C(=C\C=C\c1ccccc1[N+](=O)[O-])C(=O)NCc1ccccc1 | inconclusive: 56.2 µM [inhibitor, single point] |  |

| Compound | Potency | activity change, negative = displacement |
| --- | --- | --- |
| COc1ccc2c(c1)c1ncn(Cc3ccc(F)cc3)c(=O)c1n2C |  | inactive: 0.173% |
| COc1ccc(-c2[nH]c(-c3ccc(O)cc3)nc2-c2ccccc2)cc1 |  | inactive: 51.1% |
| COc1cc(/C=C/C(=O)CC(=O)/C=C/c2ccc(O)c(OC)c2)ccc1O | inconclusive: 7.08 µM [inhibitor, partial curve] |  |
| CCOC(=O)c1cc(C#N)c(NCc2ccccc2)nc1C |  | inactive: -13.5% |
| O=C(NCc1ccc(Cl)cc1)c1ccc(CSc2nc3ccncc3[nH]2)cc1 | inconclusive: 39.8 µM [inhibitor, single point] |  |
| Cc1ccc(NC(=O)O/N=C2\CCCCC2c2ccc([N+](=O)[O-])cc2[N+](=O)[O-])cc1 (configuration not stated) | inconclusive: 11.2 µM [inhibitor, partial curve] |  |
| CC1CCCCN1Cc1c(O)ccc2c(=O)c(-c3nc4ccccc4s3)c(N)oc12 (configuration not stated) | inconclusive: 31.6 µM [inhibitor, partial curve] |  |
| CCOC(=O)C1(Cc2cccc(OC)c2)CCN(Cc2cnc(SC)nc2)CC1 |  | inactive: -12.4% |
| CCc1cccc(C)c1NC(=O)c1ccc2c(c1)CCN2S(=O)(=O)c1ccc(Cl)cc1 |  | inactive: 1.88% |
| O=C(COC(=O)c1cc([N+](=O)[O-])ccc1N1CCOCC1)Nc1ccc(Cl)cc1 | inconclusive: 28.2 µM [inhibitor, single point] |  |
| CCn1c(SCC(=O)N/N=C/c2ccc(C)s2)nc2ccccc21 | inconclusive: 50.1 µM [inhibitor, single point] |  |
| CC(C)N(Cc1ccccc1)C(=O)CN1C(=O)c2ccccc2C1=O |  | inactive: -19.6% |
| N#C/C(=C\Nc1ccc(Cl)cn1)S(=O)(=O)c1ccccc1 |  | inactive: -9.34% |
| CC1CCN(C(=O)CSc2nnc(-c3cc4ccccc4cc3O)n2Cc2ccco2)CC1 | inconclusive: 10 µM [inhibitor, partial curve] |  |
| C/C(=N\NC(=O)CCCNc1ccccc1)c1ccncc1 | inconclusive: 39.8 µM [inhibitor, single point] |  |
| CO/N=C\[C@@H](NS(=O)(=O)c1ccc(C)cc1)[C@H](C)/C=C\CC(=O)OC |  | inactive: 5% [at 15.3 µM] |
| O/N=C(\COc1ccccc1O)c1ccccc1 | inconclusive: 39.8 µM [inhibitor, partial curve, poor fit] |  |
| NC(=O)c1sc2nc(N3CCCCC3)c3c(c2c1N)CCCC3 | inconclusive: 31.6 µM [inhibitor, single point] |  |
| CCC(C(=O)N/N=C/c1cccnc1)c1ccccc1 (configuration not stated) | inconclusive: 17.8 µM [inhibitor, partial curve] |  |
| Cc1ccc(NC2Sc3ccccc3NC2=O)cc1Cl (configuration not stated) | inconclusive: 35.5 µM [inhibitor, single point] |  |
| COc1ccccc1N1CCN(C(=O)c2ccc3c(c2)NC(=O)C(CSCc2ccccc2C)N3)CC1 (configuration not stated) | inconclusive: 25.1 µM [inhibitor, partial curve] |  |
